# Experimental data: PubChem BioAssay AID1508624 (National Center for Advancing Translational Sciences (NCATS), 2021)
# Among all 48,000 compounds or so, about 120 (0.25%) were called active. Another 4% or so got no clear call; they are omitted. The call rests on the fitted dose curve; in most records, active means well fitted activation curve with a large enough effect; inconclusive means small, poorly fitted or top-dose-only effect, or another doubt; inactive means no such curve, though single readings can be large or run the other way. Some of the results follow.
# Assay: Primary qHTS for Identification of Small Molecule Activators of Huntingtin-Antisense Promoter Activity; further: nearly all actives have a fitted effect of over 55% in size
# Details: HEK293 HTT-AS promoter firefly luciferase reporter, 24 h; series mostly up to 57.5 µM; activity change, positive = activation: at the top concentration
# In short: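 HEK293 cells carrying firefly luciferase reporters were seeded at 2,500 per well in Opti-MEM and cultured for 24 h. They were then treated with compounds at up to 57.5 uM final for 24 h at 37 degrees C before Dual-Glo luminescence readout.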
# Potency means the concentration at half of the fitted maximal effect.
SMILES,"activity change, positive = activation",Potency
COc1ccc(CNC(=O)Cn2ccc3cc(S(=O)(=O)N4CCCCCC4)ccc32)cc1OC,inactive: -26.4%,
COc1ccc2oc(=O)cc(CN3CCN(C(=O)c4ccccc4F)CC3)c2c1,inactive: -17.1%,
CCn1c(CN2CCC(C)CC2)nc2cc(NC(=O)c3ccccc3[N+](=O)[O-])ccc21,inactive: -14.8%,
Cc1ccc(C)c(Cn2c(=O)c3c(nc4n3CCN4c3ccc(F)cc3)n(C)c2=O)c1,inactive: -14.6%,
CCOC(=O)c1c(C)[nH]c(CCC(=O)NCCCN2CCN(c3cccc(Cl)c3)CC2)c1C,inactive: -35.6%,
CCOc1ccc(-n2c(Cc3ccccc3)nnc2SCc2nc(-c3ccccc3C)no2)cc1,inactive: -41.7%,
CC(=O)NCCNC(=O)CCCc1nnc2n(CCC(C)C)c(=O)c3sccc3n12,inactive: -4.22%,
CCS(=O)(=O)N1CCc2cc(C(=O)N3CCN(c4cccc(C(F)(F)F)c4)CC3)ccc21,inactive: -28.7%,
Cc1ccc(NC(=O)C(=O)NCC(c2cccnc2)N2CCOCC2)cc1C (centres undefined),inactive: -15.6%,
CCc1ccc(OC(=O)CSc2nnc(-c3ccc4c(c3)OCO4)o2)cc1,inactive: -25.9%,
CCOCCCNC(=O)C(c1ccc(OC)cc1)N(Cc1cccs1)C(=O)c1ccc(NC(C)=O)cc1 (centres undefined),inactive: -6.43%,
Fc1cccc(-c2nc(-c3ccncc3)no2)c1,,active: 3.98 µM
Cc1ccc(C(=O)c2oc3ccccc3c2NC(=O)c2cc(=O)c3ccccc3o2)cc1,inactive: -2.1%,
CCOC(=O)c1c(C)oc2nc(C)nc(Nc3cccc(OC)c3)c12,inactive: -4.67%,
CCN1CCC(n2cc(CNc3cc(Cl)c4ncc(C#N)c(Nc5ccc(F)c(Cl)c5)c4c3)nn2)CC1,inactive: -2.02%,
Nc1ccc(S(=O)(=O)Nc2ccccn2)cc1,inactive,
CCOc1ccc(CC(=O)Nc2c(C(=O)c3ccc(F)cc3)oc3ccccc23)cc1OCC,inactive: -16.4%,
COC(=O)c1ccc(C2Nc3c(C)cc(C)cc3C3C=CCC32)cc1 (centres undefined),inactive: -9.81%,
Cc1ccccc1CSc1cn(CCNC(=O)c2cccs2)c2ccccc12,inactive: -47.2%,
COc1ccc(C(CNC(=O)COc2ccc(C)c(C)c2)N2CCCCC2)cc1 (centres undefined),inactive: 7.15%,
CCC(O)c1nc2ccccc2n1Cc1cccc(Cl)c1 (centres undefined),inactive: -27%,
Cn1cc(-c2ccncc2)c(-c2ccc(OCc3ccc4ccccc4n3)cc2)n1,inactive: -93.5%,
CC(=O)Nc1ccc(NC(=O)CC2Sc3ccccc3NC2=O)cc1 (centres undefined),inactive: -8.83%,
Cc1ccc(Cl)cc1N1CCN(C(=O)c2cc(S(=O)(=O)N3CCC(C)CC3)cn2C)CC1,inactive: -43.2%,

SMILES,"activity change, positive = activation",Potency
CCOc1ccc(CNC(=O)C2CCN(S(=O)(=O)c3c(C)noc3/C=C/c3ccc(C)cc3)CC2)cc1OC,inactive: 15.7%,
Cc1c(CNCc2ccc(Cl)cc2)c(C(=O)O)c(C)n1Cc1ccc(F)cc1,inactive: -19.6%,
CCOc1ccc(CNS(=O)(=O)c2ccc3[nH]c4c(c3c2)CCCC4)cc1OC,inactive: -28.4%,
COc1ccc(NC(=O)CSc2nc3nc(C)cc(C)n3n2)cc1,inactive: -15.6%,
COc1cccc(CNC(=O)CCc2nnc3n(C)c(=O)c4sccc4n23)c1,inactive: -4.36%,
CCCN(CCC)CCCNC(=O)C1CCC(CNS(=O)(=O)c2ccc(NC(C)=O)cc2)CC1 (centres undefined),inactive: -6.55%,
COc1ccc(NC(=O)Cn2c(CCC(=O)O)ccc2-c2ccccc2)cc1Cl,inactive: -12.9%,
COc1ccc(-c2noc(-c3ccc(NCc4ccc(C)cc4)c([N+](=O)[O-])c3)n2)cc1OC,inactive: -5.65%,
Cn1c(=O)c2c(nc(SCC(=O)Nc3ccc(OC(F)(F)F)cc3)n2Cc2cccc(C(F)(F)F)c2)n(C)c1=O,inactive: -25%,
Cc1ccc(S(=O)(=O)Nc2cc3c(cc2C)n(C)c(=O)c(=O)n3C)cc1,inactive: -18.5%,
O=S1(=O)c2cccc3cccc(c23)N1CCCN1CCN(c2ccc(F)cc2)CC1,inactive: -19.2%,
Cc1ccc(-c2onc(C)c2C)cc1S(=O)(=O)N1CCCCC1,inactive: -40.2%,
Cc1cc(NC(=O)N2CC=C(c3c[nH]c4ccccc34)CC2)ccc1Br,inactive: -21.5%,
O=C(Cn1c(=O)n(-c2ccc(F)cc2)c(=O)c2sc3ccccc3c21)N1CCCC1,inactive: -0.188%,
CCOC(=O)c1sc2ccccc2c1S(=O)(=O)Nc1c(C)cccc1C,inactive: -18.6%,
Cc1ccc(CSC2=Nc3ccccc3C3=NC(CCC(=O)N4CCN(c5ccccc5)CC4)C(=O)N23)cc1 (centres undefined),inactive: 11.2%,
CCOC(=O)c1c(N)n(-c2ccc(C)c(C)c2)c2nc3ccccc3nc12,inactive: -1.32%,
COc1cc(CNC(=O)c2cc(-c3ccccc3)n[nH]2)cc(OC)c1OC,inactive: -13.4%,
Cc1ccccc1NC(=O)CSc1nc(-c2ccc(F)cc2)c2cccc(C)c2n1,inactive: 7.4%,
O=c1[nH]c(=O)c2ccccc2o1,inactive: -6.24%,
COc1ccc(-n2nc(C(=O)N3CCC(C)CC3)c3c4ccccc4n(C)c3c2=O)cc1Cl,inactive: -13.3%,
CCc1nn(CC(=O)NCCc2ccc(OC)cc2OC)c(=O)c2cc3sccc3n12,inactive: -10.5%,
COc1cccc(CNC(=O)Cn2cc3c(n2)-c2c(oc(C(=O)N4CCCC4)c2C)CC3)c1OC,inactive: -29.1%,
O=C(NCc1ccc2c(c1)CCN2C(=O)c1ccc(F)cc1)c1ccc(Br)o1,inactive: -25.7%,

SMILES,"activity change, positive = activation",Potency
Cc1cc(C)c(NC(=O)Cn2nc3c(cc2=O)CCCC3)c(C)c1,inactive: -8.56%,
COCCCN1C(=O)N(c2ccccc2)C(=O)C1CC(=O)Nc1ccc(F)cc1 (centres undefined),inactive: 8.74%,
CCCS(=O)(=O)c1ncc(Cl)c(C(=O)N(Cc2ccccc2)Cc2ccco2)n1,inactive: -89.3%,
O=C(Nc1ccc(S(=O)(=O)Nc2ccccc2)cc1)N1CCCC1,inactive: -15.9%,
COc1ccccc1NC(=O)N1CC(=O)Nc2sc3c(c2C1c1ccccc1)CCCC3 (centres undefined),inactive: -12.9%,
COc1ccccc1NC(=O)C1=C(C)Nc2c(C(=O)Nc3ccc(F)cc3)cnn2C1c1ccc(Cl)cc1 (centres undefined),inactive: -38.1%,
CCOc1ccc(CCNC(=O)CCCc2nnc3n(CC(C)C)c(=O)c4sccc4n23)cc1,inactive: -6.47%,
COc1ccc2c(Sc3ccccc3)c(C(=O)NCc3cccc(OC)c3OC)[nH]c2c1,inactive: -7.08%,
CCOC(=O)c1cc(S(=O)(=O)Nc2ccc(OC)c(Cl)c2)[nH]n1,inactive: -20.5%,
CCOC(=O)C1(C)C=C(Nc2ccc(C(N)=O)cc2)C(=O)N1c1ccccc1 (centres undefined),inactive: 5.35%,
CN1C(=O)Cc2cc(S(=O)(=O)CCC(=O)Nc3cccc(C(F)(F)F)c3)ccc21,inactive: -6.93%,
CC(C)OCCCn1c(SCc2cccc(Br)c2)nc2c(sc3ccccc32)c1=O,inactive: 2.28%,
COc1ccccc1Oc1nc2c(c(=O)n(C)c(=O)n2C)n1Cc1cccc(Br)c1,inactive: -27.5%,
COCCNC(=O)c1ccc2c(c1)N(Cc1cccc(Cl)c1)C(=O)c1ccccc1S2(=O)=O,inactive: -15.2%,
Cc1ccc(OC(=O)c2cc(-c3ccccc3)nc3ccc(C)cc23)cc1,inactive: -9.15%,
CC(=O)N1c2ccc(S(=O)(=O)NCC3CCC(C(=O)NCCC(C)C)CC3)cc2CC1C (centres undefined),inactive: -14.6%,
CCCc1noc(-c2ccc(N3CCCCC3)c([N+](=O)[O-])c2)n1,inactive: 9.87%,
Cc1nc2c(cnn2-c2ccccc2Cl)c(=O)n1-c1ccc(C(C)C)cc1,inactive: -31.7%,
CCc1ccc(S(=O)(=O)c2nnn3c2nc(NCCc2ccccc2)c2sccc23)cc1,inactive: -23.4%,
COc1cc(NC(=O)Cn2ncc3c(=O)oc4ccccc4c32)cc(OC)c1OC,inactive: -0.808%,
CN(C)S(=O)(=O)N(CC(=O)NCCSCc1ccccc1Cl)c1ccccc1,inactive: -21.2%,
COc1cccc(-c2nc(SCC(=O)Nc3ccc4c(c3)OCO4)c(-c3ccccc3)[nH]2)c1,inactive: -15.8%,
Cc1cccc(N2CCN(S(=O)(=O)c3cc(Br)cc4c3N(C(=O)C3CC3)CC4)CC2C)c1 (centres undefined),inactive: -14.5%,
COc1ccc(CCn2cc3c(c2-c2ccccc2Br)c(=O)n(C)c(=O)n3C)cc1OC,inactive: -19.5%,

SMILES,"activity change, positive = activation",Potency
O=S(=O)(c1ccccc1)c1nnn2c1nc(NCc1cccs1)c1sccc12,inactive: -12.7%,
Cc1ccc2oc(C(=O)Nc3c(C(=O)Nc4ccccc4)oc4ccccc34)cc(=O)c2c1,"inactive: 2.44% [at 11.5 µM, percent change from vehicle, -100% = no light]",
CCCOc1ccc(N2CC(C(=O)Nc3cccc(Cl)c3Cl)CC2=O)cc1 (centres undefined),inactive: -15.2%,
CCOc1ccc(CCNC(=O)CN2C(=O)COc3ccc(S(=O)(=O)N4CCC(C)CC4)cc32)cc1,inactive: -43.7%,
Cc1ccc(NC(=O)CCn2cccn2)cc1Cl,inactive: 6.79%,
c1cncc(CN2CCC(n3ncc4c(N5CCOCC5)nc(-c5ccc6[nH]ccc6c5)nc43)CC2)c1,inactive: -35.5%,
COc1ccc(NC(=O)Cn2c(=O)n(-c3ccccc3)c(=O)c3c4c(sc32)CCCC4)cc1,inactive: -9.59%,
Cc1cc(C)cc(Nc2cc(-c3ccccc3)nc(C)n2)c1,inactive: -26.5%,
CCCCN(C)c1nnc(NC(=O)Nc2cccc(C(C)=O)c2)s1,inactive: -6.04%,
COC(=O)c1c(NC(=O)c2cc3nc(-c4ccc(OC)cc4)cc(C(F)(F)F)n3n2)sc2c1CCCC2,inactive: 5.56%,
Cc1ccc(NC2=CC(c3ccccc3F)N(c3ccc(C)cc3)C2=O)cc1 (centres undefined),inactive: 6.87%,
COc1ccc(-c2cc(NCc3ccc(F)cc3)n3cnnc3n2)cc1,inactive: -24.5%,
Cc1cc(OCC(=O)NCC2(N3CCN(C)CC3)CCCCC2)cc(C)c1Cl,inactive: -16.8%,
O=C(Cc1ccccc1)Nc1sc2c(c1C(=O)Nc1ccccc1Cl)CCC2,inactive: -26.9%,
CC(NCc1ccc2c(c1)nc(NC(=O)c1ccc(-c3cn[nH]c3)s1)n2CC(C)(C)O)C(C)(C)C (centres undefined),inactive: -47.1%,
O=c1[nH]c(=O)n([C@H]2O[C@H](CO)[C@@H](O)[C@@H]2O)cc1/C=C\Br,inactive: -4.19%,
Cc1ccc(NC(=O)CCc2nnc3n(CC(C)C)c(=O)c4ccccc4n23)cc1C,inactive: -0.565%,
Cc1ccc(-n2nc3c(N4CCC(C(=O)N5CCCCC5)CC4)nnc(C)c3c2C)cc1,inactive: -22.2%,
CCCN1C(=O)C(Cc2nc3ccccc3c(=O)n2CC)c2ccccc21 (centres undefined),inactive: -16.7%,
CCCc1cc(N2CCN(c3cc(Cl)ccc3C)CC2)n2cnnc2n1,inactive: -23.5%,
COc1ccc(CNC(=O)Cn2nc(C)c3nn(-c4ccc(Cl)cc4)c(C)c3c2=O)cc1,inactive: -21.2%,
O=C(NCc1ccccc1Br)c1ccc2nc(N3CCCCC3)sc2c1,inactive: 19.4%,
